Reference: the RNAGym collection of RNA variant scans (doi:10.1073/pnas.2313332121)
Variants at the floor of the assay are shown more often than the library holds them.

B1: TPR 5TU (parent)
chain: GGAUCUUCUCGAUCUAACAAAAAAGACAAAUCUGCCACAAAGCUUGAGAGCAUCUUCGGAUGCAGAGGCGGCAGCCUUCGGUGGCGCGAUAGCGCCAACGUUCUCAACUAUGACACGCAAAACGCGUGCUCCGUUGAAUGGAGUUUAUCAUG

Variants of: B1
Assay: polymerase ribozyme fitness, log enrichment relative to wild type (log ratio); higher = more active; in vitro selection for triplet polymerase activity
How it was run: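 Mutant libraries of both subunits of a heterodimeric triplet polymerase ribozyme were PCR-built, transcribed, and selected once in triplicate, with frozen incubation at −7 °C and capture of gel-excised extended constructs on streptavidin beads before RT-PCR. Illumina sequencing of input and output libraries was filtered to genotypes with ≥10 input reads and ≥1 read per output. Fitness is the logarithm of genotype enrichment over wild-type enrichment, using inverse-variance-weighted replicate averages. The logarithm is base 2.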

Variant	polymerase ribozyme fitness (log ratio)
A12C A40U G42A U55A G88U A115G	≤ -4.2
A12C A47U U55A	-1.41
A12C A49C A142G	≤ -4.2
A12C A49C G50A G62C C93U U134G G143C	≤ -4.2
A12C A49U A60C U61G A91C	≤ -4.2
A12C A52C U53A C57A G58U G83U C118U U151G	≤ -4.2
A12C A52G A64U A120U A150U	≤ -4.2
A12C A52G G68U A98U	-4.19
A12C A64U G68C G84U A106C U145G	≤ -4.2
A12C A66G C85G C95U C108G	≤ -4.2
A12C A113G	-2.73
A12C A142C	-1.32
A12C C14A A23U U55A A73G C85A G126U U148G	≤ -4.2
A12C C14G A29C G46C U53C U55A C93G	≤ -4.2
A12C C18G A20U C43U G71U C72U A91G	≤ -4.2
A12C C18G G81C A91C C95A A113C A115C	≤ -4.2
A12C C18U G65U G84A A120U C125U	≤ -4.2
A12C C27A A49G C75U C125G C129A A138G C149G	≤ -4.2
A12C C27U C35U A52C C75A A115C	≤ -4.2
A12C C32G G84U	≤ -4.2
A12C C35U A49C A64U C95U C123U	≤ -4.2

Variant	polymerase ribozyme fitness (log ratio)
A12C C35U G68A U82A C93A	≤ -4.2
A12C C36U G94A G117A C129A C149A	≤ -4.2
A12C C38U C51A G83U G92C	≤ -4.2
A12C C51U C54G G74U G84A G152A	≤ -4.2
A12C C54U	-0.207
A12C C54U U77G C118G	≤ -4.2
A12C C57G A107C U134G	≤ -4.2
A12C C57G C75G G94A U101A C105A G143C	≤ -4.2
A12C C57U U90A C103A C125G	≤ -4.2
A12C C69A U90A G124C A138U U148A	≤ -4.2
A12C C76A A91U	≤ -4.2
A12C C76G G94C A150C	≤ -4.2
A12C C79U C85U U127C G141U	≤ -4.2
A12C C85U A91G G124A G126C	≤ -4.2
A12C C87U A115C	-1.97
A12C G34U G50U G88C A98U C125A	-4.18
A12C G42U	≤ -4.2
A12C G46C A47G U55A G84C A113U	≤ -4.2
A12C G46U A113U C118U	-3.95
A12C G48A U104G	≤ -4.2
A12C G50C G59U C85G C87G C96G C103G A113U C129A U144C	≤ -4.2

Variant	polymerase ribozyme fitness (log ratio)
A12C G50U G88C	≤ -4.2
A12C G58C G94C	-1.43
A12C G58U G81A C93A C103G A137G	≤ -4.2
A12C G59A G84A C118U A121G A122C G126U	-3.86
A12C G68A G92U A113U A138G U144C	≤ -4.2
A12C G86A A113C	≤ -4.2
A12C G92C	-0.73
A12C G92C A138U	≤ -4.2
A12C U13A U31G G48A G92C	≤ -4.2
A12C U13C A26C C27G G70A C96G	≤ -4.2
A12C U15A C43U G50C G59C A60C G62C C93A A107U G124U U127G U145C U148A	≤ -4.2
A12C U15C G42A U45G C87U U101G	≤ -4.2
A12C U33A G42U A60G C93G	≤ -4.2
A12C U44A C95A	≤ -4.2
A12C U44A U56G G83U A89U C95A A98C C103G A107G	≤ -4.2
A12C U53A C125G A150U U151G	≤ -4.2
A12C U53C G74A C76G C96U A110U	≤ -4.2
A12C U61G C75G C96U C131U G140U G141A	≤ -4.2
A12C U77G G94C C96G	≤ -4.2
A12C U139A	≤ -4.2
A12G A16C A119U A121G U135C U146A A150G	-4.12

Variant	polymerase ribozyme fitness (log ratio)
A12G A16U A26U G83U C87G U145C	≤ -4.2
A12G A16U A60U C72G C95U	≤ -4.2
A12G A17C A20G A28G A49U U55A G59A C87G	≤ -4.2
A12G A17C U33A U55G C57G C87A G94A G128U	≤ -4.2
A12G A17G A19G C32G C51A C87A A138C	≤ -4.2
A12G A17U C57G G65U A107G A122G A147G	≤ -4.2
A12G A19C A23U C54U G84C A97C A115C G124U U145C	≤ -4.2
A12G A20G A23U A89G C96U U111C G124C U130G G133C G140A	≤ -4.2
A12G A21C A23G C76G C116G G133A	≤ -4.2
A12G A21G A37U C54G U77A A91C C93A	≤ -4.2
A12G A21G C43U U55A G83U U144G	≤ -4.2
A12G A21G G83C A107G G112U G143U	≤ -4.2
A12G A21G G86U A91U U101A A106G A122G	≤ -4.2
A12G A21G U56A C87A U102G	≤ -4.2
A12G A21U C27A G48C A49C C51A G84A C129A	≤ -4.2
A12G A21U C32U A49C A97C A98G A121G	≤ -4.2
A12G A21U U53A A91U U127G	≤ -4.2
A12G A22U G50C G80A U135G A150G	≤ -4.2
A12G A24C A39C G50A A122U U144A U145A	≤ -4.2
A12G A24U A26U U31G U55G C95G C116U	≤ -4.2
